In PubChem BioAssay AID686978 (National Center for Advancing Translational Sciences (NCATS), 2013):
Where “and” joins values, the source holds several entries; their conditions need not be identical. Equal entries are not always repeated. About 64,000 (15%) of roughly 420,000 compounds were called active. The inconclusive results got no clear call from the source; some entries with a clear call stand among them for comparison. The call rests on the fitted dose curve; in most records, active means well fitted inhibition curve with a large enough effect; inconclusive means small, poorly fitted or top-dose-only effect; inactive means flat fitted curve, though single readings scatter. Where the call is inconclusive, the potency comes from a doubtful curve fit.
On the % scale 0 is the no-effect control and ±100 the full control effect; potency means the concentration at half of the fitted maximal effect; tags describe the fitted curve by direction and shape.

Test: qHTS for Inhibitors of human tyrosyl-DNA phosphodiesterase 1 (TDP1): qHTS in cells in absence of CPT; further: nearly all actives have a fitted effect of over 55% in size
Conditions: DT40 Tdp1-/- hTDP1 cells, no CPT, ATP luminescence, 48 h; activity change, negative = growth inhibition: at 46.2 µM (top of the series) unless noted
How it was run: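 No-CPT arm: Tdp1-/-;hTDP1 DT40 cells (400/well) plus compounds, incubated ≥48 hr at 37 °C. Readout CellTiter-Glo luminescence.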
With `COCc1cc(=O)[nH]c(SCCS(=O)(=O)c2ccc(Cl)cc2Cl)n1` the Potency was inconclusive: 18.4 µM [inhibitor, single point]. For `N/C(=N\OC(=O)Nc1ccccc1)c1cccc(C(F)(F)F)c1`, the Potency was “inactive”. For `COc1cc(NC(=O)c2ncn[nH]2)cc(OC)c1OC`, the Potency was “inactive”. In the case of `COc1ccc(N(CC(=O)Nc2cccc(OC)c2)S(=O)(=O)c2c(C)nn(C)c2C)cc1`, the Potency is reported as “inactive”. For `COc1ccc(-c2noc(CSc3nnc(-c4ccncc4)n3-c3cccc(C)c3)n2)cc1OC`, the Potency was inconclusive: 23.1 µM [inhibitor, single point]. For `COc1ccccc1NC(=O)Nc1nc(CC(=O)Nc2ccc(OC)c(OC)c2)cs1`, the Potency was inconclusive: 11.6 µM [inhibitor, partial curve, poor fit]. For `COc1cccc(C(=O)Oc2cc3c4c(c2)C(C)=CC(C)(C)N4C(=O)C3=O)c1`, the Potency was active: 3.66 µM. In the case of `CC(C)c1cc(-c2cc(-c3ccc(Cl)cc3)on2)nc(NC2CCCC2)n1`, the Potency is reported as inconclusive: 16.4 µM [inhibitor, single point]. With `CCC(C(=O)OCC(=O)N1CCN(c2ccc(OC)cc2)CC1)c1ccccc1` (stereo not given) the Potency was inconclusive: 29.1 µM [inhibitor, single point]. With `C[C@@H]1CN([C@H](C)CO)C(=O)CCCn2cc(nn2)CO[C@H]1CN(C)C(=O)c1ccccc1` the Potency was “inactive”. With `CC(=O)NCC(=O)NC1CCCc2c1cnn2-c1ccc(C(C)(C)C)cc1` (stereo not given) the Potency was active: 4.11 µM. With `COc1ccc(CNC(=O)[C@H](C)NC(=O)C2CCN(S(=O)(=O)c3ccccc3)CC2)cc1` the Potency was “inactive”. With `COc1ccccc1NC(=O)Cn1c(SCC(=O)NCc2ccccc2)nc2ccccc21` the Potency was inconclusive: 29.1 µM [inhibitor, single point]. For `O=C(Nc1ccc(Br)cn1)c1ccc(Br)s1`, the Potency was active: 25.9 µM. For `CCC(NC(=O)c1ccccc1NC(=O)c1ccccc1)C(=O)OC` (stereo not given), the Potency was inconclusive: 16.4 µM [inhibitor, partial curve, poor fit]. For `CC(=O)Nc1ccc(-c2nnc3n(CC(C)C)c(=O)c4ccccc4n23)cc1`, the Potency was inconclusive: 20.6 µM [inhibitor, single point]. In the case of `COc1ccc2cc(C3=CC(=O)C[C@H](c4ccc5c(c4)OCO5)C3)ccc2c1`, the Potency is reported as inconclusive: 16.4 µM [inhibitor, single point]. For `CC(=O)c1c(C)[nH]c(C(=O)NNC(=O)c2ccc(Br)cc2)c1C`, the Potency was inconclusive: 29.1 µM [inhibitor, single point]. For `OC[C@@H]1CN(CCc2ccccc2)C[C@H](n2cnc3c(NCc4ccc(F)cc4)ncnc32)O1`, the Potency was inconclusive: 29.1 µM [inhibitor, single point]. With `COc1ccc2ccccc2c1/C=N/N1C(=O)CSC1=S` the Potency was “inactive”. With `Cn1c(SCc2ccc(Cl)cc2)nnc1-c1ccc(NC(=O)CCc2ccccc2)cc1` the Potency was inconclusive: 35.5 µM [inhibitor, single point]. With `NS(=O)(=O)c1ccc(CCNC(=O)CN2CCN(c3ccc(F)cc3)CC2)cc1` the Potency was inconclusive: 20.6 µM [inhibitor, partial curve]. In the case of `N[C@@H](Cc1ccc(O)cc1)C(=O)NO`, the Potency is reported as “inactive”. In the case of `CC1CCN(C(C(=O)O)c2ccccc2)CC1` (stereo not given), the Potency is reported as “inactive”. With `O=C(c1ccc(CNS(=O)(=O)c2ccc(F)cc2)cc1)N1CCCCCC1` the Potency was active: 14.6 µM. For `CCc1ccc(OCC2c3cc(OC)c(OC)cc3CCN2C(=O)Cc2ccc(OC)c(OC)c2)cc1` (stereo not given), the Potency was inconclusive: 1.64 µM [inhibitor, full curve, poor fit]. For `COc1ccc(NC(C)=O)cc1NS(=O)(=O)c1ccc2c(c1)OCCO2`, the Potency was “inactive”. With `COCCCNC(=O)c1c(N)n(/N=C/c2ccccn2)c2nc3ccccc3nc12` the Potency was active: 10.3 µM. With `CC(SC1=NCCS1)C(=O)Nc1nnc(-c2ccc(F)cc2)s1` (stereo not given) the Potency was “inactive”. For `N#Cc1cc(-c2ccccc2)nc(Oc2ccccc2)n1`, the Potency was active: 18.4 µM. With `O=c1cc(-c2ccc(O)c(O)c2)oc2c1ccc1ccccc12` the Potency was active: 25.9 µM. For `Cc1cc(CN2CCC(n3nccc3NC(=O)c3ccccc3Cl)CC2)cc(C)c1O`, the Potency was “inactive”. In the case of `COc1ccc(CCC(=O)NCCc2csc(-c3cccc(F)c3)n2)cc1`, the Potency is reported as inconclusive: 29.1 µM [inhibitor, single point]. With `CCc1ccc(C(=O)Nc2cc(C)ccc2F)s1` the Potency was inconclusive: 29.1 µM [inhibitor, single point]. In the case of `Cc1sc2nc(CN3CCN(S(=O)(=O)c4cccc5nonc45)CC3)[nH]c(=O)c2c1C`, the Potency is reported as inconclusive: 18.4 µM [inhibitor, single point]. With `Cn1c(-c2ccccc2)cnc1NCc1cccc([N+](=O)[O-])c1` the Potency was inconclusive: 13 µM [inhibitor, partial curve]. For `O=C(O)CCCn1c(O)c(C=C2N=c3ccccc3=N2)sc1=S`, the Potency was inconclusive: 29.1 µM [inhibitor, single point]. For `Cn1c(SCC(=O)Nc2ccccc2Oc2ccccc2)nnc1C1CC1`, the Potency was “inactive”. With `CCCCn1c(N)c(N(CC(C)C)C(=O)c2cc(-c3ccc(OC)c(OC)c3)nc3ccccc23)c(=O)[nH]c1=O` the Potency was inconclusive: 16.4 µM [inhibitor, single point]. In the case of `CCCCOCCCNC(=O)C[C@@H]1C[C@@]2(C(=O)OC)CCCCC=C2N(CCC2=CCCCC2)C1=O`, the Potency is reported as active: 23.1 µM. With `CCOC(=O)C(C)Sc1nnc(CNC(=O)c2ccc(OC)cc2)n1C1CCCCC1` (stereo not given) the Potency was inconclusive: 25.9 µM [inhibitor, single point]. With `Cc1ccc(CCNC(=O)CCCn2nc(C)c3c(C)n(-c4ccc(C)cc4)nc3c2=O)cc1` the Potency was inconclusive: 20.6 µM [inhibitor, partial curve] and inconclusive: 29.1 µM [inhibitor, single point]. For `COc1ccc(NC(=O)CCCN2C(=O)C(c3ccccc3)Oc3cccnc32)cc1OC` (stereo not given), the Potency was inconclusive: 25.9 µM [inhibitor, single point] and inconclusive: 29.1 µM [inhibitor, single point]. With `COc1cccc(-c2csc(N3CCN(CC(=O)NNC(=O)c4ccco4)CC3)n2)c1` the Potency was inconclusive: 20.6 µM [inhibitor, single point]. With `COc1ccc(CNC(=O)C2CCCN(S(=O)(=O)c3cc(C)ccc3OC)C2)cc1` (stereo not given) the Potency was inconclusive: 20.6 µM [inhibitor, single point]. For `CC(C)(C)c1ccc(S(=O)(=O)N2CCN(c3ccccn3)CC2)cc1`, the Potency was “inactive”. In the case of `Cc1c(C(=O)N2CCC(C(N)=O)CC2)oc2ccc(Br)cc12`, the Potency is reported as “inactive”. With `CN[C@H](C)C(=O)NC[C@H]1O[C@@H](n2cc(C)c(=O)[nH]c2=O)C[C@@H]1O` the Potency was “inactive”. In the case of `CCOC(=O)/C(C#N)=C/c1ccc(N2CCN(C)CC2)cc1`, the Potency is reported as “inactive”. In the case of `COc1ccc(C(=O)OCc2csc(C)n2)c(O)c1`, the Potency is reported as “inactive”. With `CC(C)C[C@H]1CNC(=O)C(=O)N1C[C@H]1CCCN1C[C@H](CC(C)C)N1C[C@H](Cc2ccccc2)N(CCc2ccccc2)C(=O)C1=O` the Potency was active: 29.1 µM. With `N/C(=N\S(=O)(=O)c1cc(C(F)(F)F)cc(C(F)(F)F)c1)c1ccncc1` the Potency was inconclusive: 29.1 µM [inhibitor, single point]. In the case of `O/N=C(/CCc1ccccc1)c1ccc2c(c1)OCCO2`, the Potency is reported as inconclusive: 7.31 µM [inhibitor, partial curve]. In the case of `Cc1nc(Nc2cccc(C(F)(F)F)c2)nc2c1C(=O)CC(C)C2` (stereo not given), the activity change, negative = growth inhibition is reported as inconclusive: -38.1% [inhibitor]. In the case of `COc1cc2c(cc1OC)C(c1ccccc1)N(C(=O)c1ccccc1F)CC2` (stereo not given), the Potency is reported as inconclusive: 29.1 µM [inhibitor, single point]. In the case of `Cc1ccc(OCC(=O)OCc2cc(=O)n3nc(C4CCCCC4)sc3n2)cc1`, the Potency is reported as “inactive”. In the case of `O=C(c1ccco1)N1CCN(c2ncnc3scc(-c4ccc(Cl)cc4)c23)CC1`, the Potency is reported as inconclusive: 29.1 µM [inhibitor, single point]. With `CC(=O)Nc1ccc(-c2csc(NC=C3C(=O)OC(C)(C)OC3=O)n2)cc1` the Potency was inconclusive: 18.4 µM [inhibitor, single point]. For `CCCCCn1c(=O)[nH]c2cc(C(=O)NCc3ccc4c(c3)OCO4)ccc2c1=O`, the Potency was “inactive”. In the case of `Cc1cc(=O)oc2c3c(cc(OCC(=O)NCCCn4ccnc4)c12)OC(C)(C)CC3`, the Potency is reported as inconclusive: 25.9 µM [inhibitor, single point]. With `COC(=O)C[C@H]1c2cc(F)ccc2S(=O)(=O)N1c1ccccc1` the Potency was “inactive”. For `COC(=O)c1sc2cc([N+](=O)[O-])cc(SCC(C)C)c2c1N`, the Potency was “inactive”. For `CCNc1c(NC(=O)c2ccccc2OCC)c(=O)oc2ccccc12`, the Potency was inconclusive: 23.1 µM [inhibitor, single point]. In the case of `CCC(C)C(=O)C(=O)N1CCC(n2nccc2NC(=O)CCOc2ccccc2)CC1` (stereo not given), the Potency is reported as inconclusive: 29.1 µM [inhibitor, single point]. In the case of `CC(C)(C)c1ccc(/C=N/OCC(=O)NCc2ccc(F)cc2)cc1`, the Potency is reported as active: 16.4 µM. For `Cc1ccc(/C=N/NC(=O)NN(C)c2ncc(C(F)(F)F)cc2Cl)cc1`, the Potency was inconclusive: 20.6 µM [inhibitor, single point]. With `C=CCNC(=O)Nc1ccc(F)cc1F` the Potency was “inactive”. For `COc1ccc(N(C(=O)c2ccccc2C)S(=O)(=O)c2ccc3c(c2)n(C)c(=O)n3C)cc1`, the Potency was inconclusive: 11.6 µM [inhibitor, partial curve]. In the case of `Cc1cc(C)c2cc(CN(CCO)Cc3nnnn3Cc3ccccc3)c(=O)[nH]c2c1`, the Potency is reported as “inactive”. In the case of `O=c1[nH]c2cc(C(F)(F)F)ccc2n1-c1cc(C(F)(F)F)ccc1O`, the Potency is reported as inconclusive: 23.1 µM [inhibitor, single point].
